# Experimental data taken from PubChem BioAssay AID686978 (National Center for Advancing Translational Sciences (NCATS), 2013).
# Hit rate of the full screen: of about 420,000 compounds, about 64,000 (15%) were called active. The shares of active, inactive and inconclusive entries below differ from those in the screen. Calls come from the whole dose curve; as a rule, active = well fitted inhibition curve with a large enough effect; inconclusive = small, poorly fitted or top-dose-only effect; inactive = flat fitted curve, though single readings scatter. No potency is given beside an inconclusive call; the fits are too rough.
# Assay: qHTS for Inhibitors of human tyrosyl-DNA phosphodiesterase 1 (TDP1): qHTS in cells in absence of CPT; note: nearly all actives have a fitted effect of over 55% in size
# Settings: DT40 Tdp1-/- hTDP1 cells, no CPT, ATP luminescence, 48 h; activity change, negative = growth inhibition: at 46.2 µM (top of the series) unless noted
# Outline: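 Cells were dispensed at 400 per well, compounds added by pin tool, plates incubated ≥48 hr at 37 °C, then CellTiter-Glo added for 30 min at room temperature before luminescence reading. Line: DT40 Tdp1-/- complemented with hTDP1; camptothecin omitted.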
# % is set by controls: 0 for no effect and ±100 for the full control effect; potency is the fitted concentration of half-maximal effect; tags give direction and shape of the fitted curve.
Compound,Potency,"activity change, negative = growth inhibition"
O=C(Nc1nc(-c2ccc(-c3ccccc3)cc2)cs1)c1cnccn1,"inconclusive [inhibitor, partial curve]",
COc1ccccc1C(=O)Nc1cccc2cccnc12,"inconclusive [inhibitor, single point]",
CCOc1ccccc1CN1CCN(Cc2cc3ccccc3[nH]2)CC1CCO (centres undefined),"inconclusive [inhibitor, single point]",
COc1cccc(C(=O)Nc2ccc3c(c2)OC[C@H](C)N(CCc2ccccc2)C[C@@H](C)[C@@H](OC)CN(C)C3=O)c1,"inconclusive [inhibitor, single point]",
CCOc1ccccc1CN1CCNC(=O)C1CC(=O)NCCN1CCOC1=O (centres undefined),,inactive: 23.8%
Cc1ccc(NCCC(=O)c2ccc(Cl)c(Cl)c2)cc1,"inconclusive [inhibitor, single point]",
CSc1nnc(-c2ccccc2)o1,,inactive: 0.151%
CCCCOc1cccc(C(=O)NC(=S)Nc2cccnc2)c1,"inconclusive [inhibitor, partial curve]",
COc1ccccc1-n1cnc2c(c1=O)c1nc3ccccc3nc1n2-c1ccc(C)c(C)c1,active: 18.4 µM,
CC(=O)c1cc(C#N)c(SCc2ccc([N+](=O)[O-])cc2)nc1C,,inactive: 5.21%
O=C(Cc1ccc(S(=O)(=O)N2CCOCC2)s1)Nc1cc(Cl)ccc1Cl,,inactive: -15.3%
O=C(Cc1cccs1)Nc1ccc(Cl)c(S(=O)(=O)N2CCOCC2)c1,"inconclusive [inhibitor, single point]",
Cc1ccc(CNc2ncnc3sc(C(=O)N4CCCCC4c4cccnc4)c(C)c23)o1 (centres undefined),"inconclusive [inhibitor, single point]",
COC(=O)c1cccc(-n2nnnc2SCC(=O)Nc2nc3c(s2)CCCC3)c1,"inconclusive [inhibitor, partial curve]",
COc1cc(/C=N/NC(=O)c2cc(-c3c(C)nn(-c4ccccc4)c3C)n[nH]2)ccc1O,"inconclusive [inhibitor, partial curve]",
OC(COC(c1ccc(Cl)cc1)c1ccc(Cl)cc1)CN1CCc2ccccc2C1 (centres undefined),"inconclusive [inhibitor, single point]",
Cc1c(Cl)ccc(S(=O)(=O)N2CCN=C2c2ccccc2)c1Cl,"inconclusive [inhibitor, single point]",
Cc1c(NC(=O)CSc2nnc(-c3cccnc3)n2N)c(=O)n(-c2ccccc2)n1C,,inactive: 15%
CN(C)CCCN(C(=O)CCc1ccccc1)c1nc2c(F)cccc2s1,"inconclusive [inhibitor, single point]",
COc1ccc(C(=O)c2coc3ccc(O)c(CN4CCCCC4)c23)cc1,"inconclusive [inhibitor, single point]",
CCOC(=O)C1CCN(C(=O)C(CCSC)NC(=O)COc2ccccc2)CC1 (centres undefined),"inconclusive [inhibitor, single point]",
Cc1cccc(N2CCN(c3c4c(nc5nncn35)CCC4)CC2)c1C,"inconclusive [inhibitor, single point]",

Compound,Potency,"activity change, negative = growth inhibition"
CCc1nc2ccc(C(=O)N3CCN(C)CC3)cn2c1N(C)CCC(C)C,"inconclusive [inhibitor, single point]",
Cc1cccc(N2CCN(CC(O)COc3ccccc3)CC2)c1 (centres undefined),,inactive: 8.08%
C=Cc1ccc(Cn2c(=O)cc(C)c3c(C)nn(C)c32)cc1,"inconclusive [inhibitor, single point]",
O=C(O)COc1ccc(NC(=O)c2ccc3c(c2)C(=O)N(Cc2ccccc2)C3=O)cc1,,inactive: 1.55%
CCN(CC)CC(C)OC(=O)c1ccccc1Cl (centres undefined),,inactive: -10.7%
CCCCn1c(/N=C/c2ccccc2NS(=O)(=O)c2ccc(C)cc2)nc2ccccc21,active: 23.1 µM,
CN(C)c1ccc(C(CNS(=O)(=O)c2ccc(F)cc2)N2CCc3ccccc32)cc1 (centres undefined),"inconclusive [inhibitor, single point]",
COc1cc([N+](=O)[O-])cc(/C=N/NC(=O)CSc2ccccn2)c1O,"inconclusive [inhibitor, single point]",
CCOC(=O)CNC(=O)c1ccc2[nH]c3ccccc3c2c1,"inconclusive [inhibitor, single point]",
CC1C(=O)N2CCCc3cc(NC(=O)c4ccccc4C(F)(F)F)cc1c32 (centres undefined),,inactive: -28.9%
C=CCOC(=O)c1ccccc1C(=O)OCC1CO1 (centres undefined),"inconclusive [inhibitor, single point]",
COc1ccccc1N1CCN(c2cnccn2)CC1,,inactive: -9.06%
Cc1ccccc1NS(=O)(=O)c1ccc(OCC(=O)NCc2ccco2)cc1,"inconclusive [inhibitor, partial curve, poor fit]",
CC(NC(=O)c1ccccc1)C(=O)OCC(=O)Nc1cccc(S(=O)(=O)N2CCCC2)c1 (centres undefined),"inconclusive [inhibitor, single point]",
COc1ccc(S(=O)(=O)c2cn(Cc3ccccc3)c3ccc(OC)cc3c2=O)cc1,active: 25.9 µM,
O=C(NCCc1c[nH]c2ccccc12)Nc1cccc2ccccc12,"inconclusive [inhibitor, single point]",
CC(C)NC(=O)c1cc2nc(-c3ccco3)cc(C(F)(F)F)n2n1,"inconclusive [inhibitor, single point]",
Cc1cc(C)n(C(=O)CNc2ccccc2Cl)n1,"inconclusive [inhibitor, single point]",
COc1ccccc1-c1cnn2c(N3CCOCC3)cc(C)nc12,"inconclusive [inhibitor, single point]",
Cc1cc(C)c2cc(C#N)c(NCCNC(=O)c3cccnc3)nc2c1,"inconclusive [inhibitor, single point]",
CC(C)(C)c1ccc(C(=O)OCC(=O)NC2CC2)cc1,,inactive: -22.3%
CC(C)CCN(Cc1ccco1)C(=O)Cn1ncc2c([nH]c3ccccc32)c1=O,"inconclusive [inhibitor, single point]",
